# Laboratory results as given in paper PMC2254625, “The crystal structure of the putative peptide-binding fragment from the human Hsp40 protein Hdj1” (BMC Structural Biology, 2008).
# Molecular target: the molecule itself
# Test: crystal structure; hanging drop vapor diffusion, 100 mM citric acid buffer (pH 5.5), 25% PEG400, room temperature; space group C222(1); dimer formed by a crystallographic two-fold axis; 2.7 Å
protein,measurement,value
"human type II Hsp40 Hdj1 putative peptide-binding fragment ([…]) (domain or fragment, […] except 228-230 were modelled in the crystal structure; The tag is inferred from the purification on a Nickel-chelating column; also called Hdj1 fragment; Hdj1 ([…]); source: E. coli, purified (Nickel-chelating column, gel filtration Superdex-75)) not shown",stoichiometry N,2
